Assay results reported in PubChem BioAssay AID686971 (National Center for Advancing Translational Sciences (NCATS), 2013).
Hit rate of the full screen: of about 360,000 compounds, about 7,500 (2.1%) were called active. Inconclusive results, whose numbers are uncertain, are shown with a selection of clear calls. Calls come from the whole dose curve; as a rule, active = well fitted cell-killing curve with a large enough effect; inconclusive = small, poorly fitted or top-dose-only effect, or effect the other way, or another doubt; inactive = no such curve, though single readings can be large or run the other way. Potencies of inconclusive entries are left out as doubtful fits.

Assay: qHTS for induction of synthetic lethality in tumor cells producing 2HG: qHTS for the HT-1080-IDH1KD cell line;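 for activity, negative = toxicity: 0% = DMSO wells and -100% = cell-free medium wells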
Conditions: HT-1080 IDH1 knockdown viability, ATP luminescence, 48 h; activity, negative = toxicity: at 46.1 µM (top of the series) unless noted
Summary of the method: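 HT-1080-IDH1KD cells (IDH1 knocked down), 750/well in RPMI with 5% FBS, treated with compound 48 h at 37 degrees C. Viability by CellTiter-Glo luminescence, normalised to DMSO and no-cell wells; concentration-response curves classed.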
Potency is the fitted concentration of half-maximal effect; tags give direction and shape of the fitted curve.

Row | Structure (SMILES) | Potency | activity, negative = toxicity
1 | CCn1c2ccccc2c2cc(CNCCCN3CCOCC3)ccc21 | active: 20.6 µM | –
2 | Cc1cccc(OCC(O)Cn2c(=N)n(CCN3CCCCC3)c3ccccc32)c1 (stereo unspecified) | active: 11.2 µM | –
3 | CN(C(=O)COC(=O)C1CCN(S(=O)(=O)c2c(Cl)cccc2Cl)CC1)C1CCS(=O)(=O)C1 (stereo unspecified) | inactive | –
4 | CCN(c1ccccc1)S(=O)(=O)c1ccc(Oc2ccc(-n3ccnc3)cc2)nc1 | inconclusive [cytotoxic, full curve] | –
5 | CC(=O)c1ccc(OCC(O)CN(C)CCOc2ccc(Br)cc2)cc1 (stereo unspecified) | inconclusive [cytotoxic, single point] | –
6 | CC(=O)N(C)c1ccc(C=C2C=Cc3ccccc32)cc1 | inconclusive [cytotoxic, single point] | –
7 | CC(C)n1c(/N=C/c2c[nH]c3ccccc23)nc2ccccc21 | inconclusive [cytotoxic, single point] | –
8 | Cc1ccc(CSc2nnc(-c3ccccn3)n2Cc2cccs2)cc1 | inconclusive [cytotoxic, single point] | –
9 | CCN1C(c2ccccc2)=C(c2ccccc2)S/C1=C/C=C1\SC(=S)N(C)C1=O | inactive | –
10 | O=C(Nc1ccc(Cl)cc1)C1Cc2c(-c3ccc(Cl)cc3)ccnc2O1 (stereo unspecified) | inconclusive [cytotoxic, single point] | –
11 | Cc1ccc(Nc2nc(N)nc(CN3CCN(c4ccccc4)CC3)n2)cc1Cl | inconclusive [cytotoxic, single point] | –
12 | O=[N+]([O-])c1cccnc1N1CCC(c2cc(-c3cccc(C(F)(F)F)c3)n[nH]2)CC1 | inconclusive [cytotoxic, single point] | –
13 | CC(C)CCC[C@@H](C)[C@H]1CC[C@H]2[C@@H]3C(=O)C=C4C[C@@H](O)CC[C@]4(C)[C@H]3CC[C@]12C | inactive | –
14 | CNc1ccc2ncc(-c3ccc(OC)c(OC)c3)n2n1 | inconclusive [cytotoxic, single point] | –
15 | COc1ccccc1/C=C/C(=O)OCC(=O)NNC(=O)c1ccccc1 | inactive | –
16 | COC(=O)c1sccc1NC(=O)c1csc(C)c1 | inconclusive [cytotoxic, single point] | –
17 | Cc1ccc(S(=O)(=O)NC(CC(C)C)C(=O)N2CCC(C)CC2)cc1 (stereo unspecified) | inactive | –
18 | O=C(NC1CCS(=O)(=O)C1)c1cccs1 (stereo unspecified) | inactive | –
19 | Cc1cc(C)cc(NC(=O)Cc2ccc(-n3cccc3)cc2)c1 | inactive | –
20 | CN1CCN(c2nc(Nc3ccc(O)cc3)nc3ccccc23)CC1 | inconclusive [cytotoxic, single point] | –
21 | CCOC(=O)c1cccc(Nc2ncnc3ccc(C)cc23)c1 | inconclusive [cytotoxic, partial curve] | –
22 | Cc1ccccc1NC(=S)NCCc1ccc(S(N)(=O)=O)cc1 | inactive | –
23 | Cc1ccc(CNC(=O)CSc2nc3c(sc4ccccc43)c(=O)n2CCCN2CCCC2)cc1 | inconclusive [cytotoxic, single point] | –
24 | C=C(C)COc1ccc(-c2nc(N)nc(C)c2Oc2ccccc2OC)c(O)c1 | inconclusive [cytotoxic, single point] | –

Row | Structure (SMILES) | Potency | activity, negative = toxicity
25 | CC(=O)ON=C1C=CC(=C(C#N)c2ccccc2)C=C1 | active: 5.8 µM | –
26 | CC(C)Cn1cnc2c(c(-c3ccccc3)c(-c3ccccc3)n2Cc2ccco2)c1=N | active: 16.4 µM | –
27 | O=C(N/N=C/c1c[nH]c2ccc(Br)cc12)c1ccn(Cc2ccc(Cl)cc2Cl)n1 | inconclusive [cytotoxic, single point] | –
28 | COc1ccc(OC)c(-c2nc(C(=O)NC3CCN(Cc4ccccc4)CC3)cc3c2[nH]c2ccccc23)c1 | inconclusive [cytotoxic, partial curve] | –
29 | CCN(C(=O)CN1CCN(c2ccc(O)cc2)CC1)c1c(N)n(Cc2ccccc2)c(=O)[nH]c1=O | inactive | –
30 | Cc1cc(Cl)ccc1NC(=S)NCCCO | inactive | –
31 | CCOc1ccc(C(=O)COC(=O)Cn2[nH]c(=O)c3ccccc3c2=O)cc1 | inactive | –
32 | Cc1cccc(C)c1-n1nnnc1C(c1ccccc1OC(F)(F)F)N1CCN(C/C=C/c2ccccc2)CC1 (stereo unspecified) | inconclusive [cytotoxic, single point] | –
33 | COc1ccc(S(=O)(=O)n2nc(-c3ccc(Cl)cc3)cc2N)cc1 | active: 18.4 µM | –
34 | O=C(Nc1ccc2nn(-c3ccccc3)nc2c1)c1ccc(Br)o1 | inconclusive [cytotoxic, single point] | –
35 | CCOc1ccc(OCC(=O)Nc2nccs2)cc1 | inconclusive [cytotoxic, partial curve] | –
36 | Cc1cc(SCC(=O)Nc2cccc(S(=O)(=O)N3CCOCC3)c2)nc2ccccc12 | inactive | –
37 | CC(=O)Nc1ccc(CNc2nc(NCC3CC3)nc3ccsc23)cc1 | inconclusive [cytotoxic, partial curve] | –
38 | CCCCN(CCCC)c1ccc(C(=O)c2ccccc2C(=O)O)c(O)c1 | inconclusive [cytotoxic, single point] | –
39 | CN(C(=O)COC(=O)c1ccc(S(=O)(=O)N2CCOCC2)cc1)C1CCCCC1 | inactive | –
40 | COC(=O)c1sc(NC(=O)c2cccc([N+](=O)[O-])c2)c(C(N)=O)c1C | inconclusive [cytotoxic, full curve] | –
41 | CCCCN=C(Nc1ccc(Cl)cc1)c1cccnc1 | inactive | –
42 | O=C(Nc1ccc(OCC(F)(F)C(F)F)c(C(F)(F)F)c1)c1ccc(Cl)cc1 | active: 14.6 µM | –
43 | COc1ccc2cc3cc(C(=O)N4CCN(Cc5ccc6c(c5)OCO6)CC4)oc3nc2c1 | – | inconclusive: -30.3% [cytotoxic]
44 | Cc1ccc(SCc2[nH]nc3c2C2(C(=O)Nc4ccc([N+](=O)[O-])cc42)C(C#N)=C(N)O3)cc1 (stereo unspecified) | inconclusive [cytotoxic, single point] | –
45 | CCN(CC)S(=O)(=O)c1ccc(C(=O)NCC(c2cccs2)N2CCOCC2)cc1 (stereo unspecified) | inactive | –
46 | CC(=O)c1ccc(C(=O)N2CCc3c([nH]c4ccccc34)C2c2cccc(C)n2)s1 (stereo unspecified) | inconclusive [cytotoxic, single point] | –
47 | O=C(c1cc2cc(Cl)ccc2[nH]1)N1CCc2ccccc2C1 | inactive | –
48 | CN(C)S(=O)(=O)c1cc(NC(=O)CSc2cccc[n+]2[O-])ccc1Cl | inactive | –

Row | Structure (SMILES) | Potency | activity, negative = toxicity
49 | CCN(Cc1ccccc1)C(c1cccs1)c1nnnn1C1CCCCC1 (stereo unspecified) | inconclusive [cytotoxic, single point] | –
50 | O=C(CN1CCC(n2nnc3cc(F)ccc32)CC1)N1CCCc2ccccc21 | inconclusive [cytotoxic, partial curve] | –
51 | O=C(O)c1ccc(NC(=O)c2cn(-c3ccccc3)nc2-c2ccc(Br)cc2)cc1 | – | inconclusive: -20% [cytotoxic]
52 | O=C(CCCCn1c(=O)c2ccccc2n(CC(=O)Nc2ccc(F)cc2)c1=O)NCc1ccco1 | – | inactive: -8.36% [at 9.24 µM]
53 | CCOC(=O)C1=C(C)N(CC(C)C)C(=O)/C1=C\c1ccc(OCC(=O)Nc2ccccc2)cc1 | inconclusive [cytotoxic, single point] | –
54 | CCc1ccc(N(C(=O)c2snc(C(N)=O)c2N)C(C(=O)NCCC(C)C)c2c[nH]c3ccccc23)cc1 (stereo unspecified) | inconclusive [cytotoxic, single point] | –
55 | COc1ccc(-c2nnc(SCC(=O)N3CCCc4ccccc43)o2)cc1OC | inactive | –
56 | O=C(O)c1ccc(N/N=C/c2ccc(-c3ccccc3)cc2)cc1 | active: 10.3 µM | –
57 | COc1cc(OCc2ccccc2)c(C(=O)/C=C/c2ccc3c(c2)OCO3)c(OC)c1OC | inconclusive [cytotoxic, partial curve] | –
58 | O=C(Nc1ccc(Cc2ccncc2)cc1)C1CCC(N2C(=O)C3C4C=CC(C5CC45)C3C2=O)CC1 (stereo unspecified) | inconclusive [cytotoxic, single point] | –
59 | COc1ccc(OC)c(S(=O)(=O)N(C)CC(=O)N2CCN(c3cccc(Cl)c3)CC2)c1 | inactive | –
60 | O=C(Cn1sc2ccccc2c1=O)Nc1ccccc1 | inconclusive [cytotoxic, single point] | –
61 | Cc1ccccc1/C=C/c1cccc[n+]1C | inconclusive [cytotoxic, single point] | –
62 | CC(C)CNC(=O)c1cccc(NC(=O)c2ccc(NC(=O)c3ccco3)cc2)c1 | inconclusive [cytotoxic, single point] | –
63 | CCN(CC)c1ccc(NC(=O)c2cc(Cl)ccc2OC)cc1 | active: 20.6 µM | –
64 | Oc1ccc(CN2CCCCC2)c2cccnc12 | active: 1.41 µM | –
65 | COc1ccccc1CNc1cc(CSc2ccc(Cl)cc2)nc(C)n1 | inconclusive [cytotoxic, single point] | –
66 | O=c1[nH]nc(SCCS(=O)(=O)c2ccc(F)cc2)n1-c1ccc2c(c1)OCCO2 | inconclusive [cytotoxic, partial curve] | –
67 | CCOc1ccc(C2=Nc3ccccc3C(c3ccc(N4CCOCC4)cc3)=NN2)cc1 | inconclusive [cytotoxic, single point] | –
68 | CCOc1ccc(C(=O)Nc2ccc3c(c2)OCCO3)cc1OC | inconclusive [cytotoxic, single point] | –
69 | CCn1ccnc1CNC(=O)c1ccc2oc(C(C)C)nc2c1 | inactive | –
70 | CSCCC1NC(=O)N(CC(=O)Nc2ccc3c(c2)OCCO3)C1=O (stereo unspecified) | inactive | –
71 | Cc1onc(-c2ccccc2)c1C(=O)OCC(=O)Nc1ccc(C#N)cc1 | inconclusive [cytotoxic, single point] | –
